Laboratory results: ChEMBL document CHEMBL4888484, “Replenishing the malaria drug discovery pipeline: Screening and hit evaluation of the MMV Hit Generation Library 1 (HGL1) against asexual blood stage Plasmodium falciparum ,using a nano luciferase reporter read-out” (2022)
Among all 150,000 compounds or so, about 540 (0.36%) showed an effect of 50% or more. The list shows a part of the results.

test system: Plasmodium falciparum; assay: Primary screen in NF54 nanoGlo assay, in single point, at 2uM, 72h; a lower Z score goes with more inhibition; format: functional, Erythrocyte; details: timepoint 72 hour

Point of comparison: `CCN(CC)c1cc(CCC(=O)NCc2ccc(F)cc2F)ccn1`, “% Inhibition” value 8%. Against it:
- COc1ccc(Cl)cc1N1C(=O)[C@@H]2CCCN2[C@H]1c1ccccc1F — lower, -16%
- Cc1ccc2c(Nc3cccc(Cl)c3)c(C(=O)N3CCCCCC3)cnc2n1 — lower, -6%
- CN(C)CCN(CCS(=O)(=O)c1ccccc1)Cc1cccnc1 — lower, 7%
- CCNC(=O)CN(CC)C(=O)C1CCC(C(=O)OC)CC1 (configuration not stated) — lower, -30%
- CCN1C[C@@H](CN(C)S(=O)(=O)c2cc(-c3cc(C(F)(F)F)[nH]n3)oc2C)CC1=O — lower, -6%
- Cc1ccc(Cn2c(=O)c(C(=O)NCc3ccccn3)nn(-c3ccc(C)c(C)c3)c2=O)cc1 — lower, -19%
- O=C(c1ccccc1)c1ccc2c(c1)N=Cc1c([nH]c(=O)n(-c3ccccc3)c1=O)N2 — lower, -8%
- CCCNC(=O)C1CCN(c2c(-n3c(C)ccc3C)c(C)nn2-c2ccccc2)CC1 — lower, 7%
- Cc1nnsc1C(=O)NCCn1cc(-c2ccoc2)cn1 — higher, 21%
- Cc1cc(C)c2[nH]c(C(=O)N3CCC[C@H]3CO)c(C)c2c1 — lower, -5%
- Cc1ccc2nc3c(n2c1)[C@@H](c1cnc(N2CCCC2)nc1)CC(=O)NC3 — higher, 17%
- CCCCc1c(O)nc(N2CCc3ccccc3C2)[nH]c1=O — lower, 6%
- CCCCc1nc(CN2C(=O)C[C@](C)(CC(C)C)C2=O)no1 — lower, -2%
- CCc1cc(CN(C)Cc2ccc(CO)o2)on1 — lower, -4%
- CCOC(=O)[C@H]1CCCN(C(=O)c2coc(CN(Cc3ccc4c(c3)OCO4)Cc3cc(C)ccc3C)n2)C1 — lower, -5%
- Cc1cccc(NC(=O)CN(C)c2nnnn2-c2ccccc2)c1C — lower, -7%
- Cc1ncnc2c1ncn2-c1cncc(C(N)=O)c1 — lower, 1%
- O=C(CCc1nnc2ccc(N3CCCCC3)nn12)Nc1ccc2c(c1)OCCO2 — lower, 0%
- O=C1NC(C2CC2)(C2CC2)C(=O)N1Cc1cc(-c2ccccc2)on1 — lower, -2%
- CC(C)(C)OC(=O)NCC[C@H](NC(=O)C1CC(=O)C1)C(F)(F)F — lower, -5%
- CCCN1CCC[C@H]1c1nc(Cc2cccnc2)no1 — lower, -1%
- Cn1c(CO)nnc1[C@H]1C[C@H](NC(=O)Cc2cccs2)C1 — lower, -9%
- COCCN1CCC[C@@]2(CCN(C/C(C)=C/c3ccco3)C2)C1 — lower, -19%
- c1n[nH]cc1C1CCCN1CCOC1CCCCO1 (configuration not stated) — lower, -5%
- CC(C)C(=O)N1CCC([C@@H]2CN(C(=O)Cc3cccc(Cl)c3)C[C@H]2CO)CC1 — higher, 10%
- c1ccc([C@@H]2COc3ccccc3N2)cc1 — lower, 2%
- CC1(C)CN(CCS(N)(=O)=O)C1(C)C — lower, -3%
- O=C(NCc1ccc2c(c1)OCO2)[C@@H]1CCN(c2ccc(Cl)c(Cl)c2)C1=O — lower, -6%
- CCOc1ccc(NC(=O)C[C@H]2C(=O)N(Cc3ccccc3)CCN2Cc2ccccc2)cc1 — lower, -7%
- Cc1ccc(NC(=O)Cn2c3cc(F)ccc3c(=O)n2C(C)(C)C)cc1F — lower, -4%
- CCOc1ccc(OCc2nc([C@H]3CC34CCC4)n(C(C)C)n2)cc1 — lower, -3%
- O=C(COc1ccc(F)cc1)N1CC[C@H](Oc2ncccc2C(=O)N2CCCCC2)C1 — lower, -7%
- c1ccc2c(N3CCOCC3)nnc(N3CCCC3)c2c1 — lower, -7%
- CC(C)[C@H](CNC(=O)Nc1ccc2sncc2c1)c1cccnc1 — lower, -9%
- FC(F)(F)C1(C(F)(F)F)N=C(c2ccccc2)NC(c2ccccc2)=N1 — lower, -43%
- CN1Cc2ccccc2N(CC(=O)NCc2ccccc2)C1=O — lower, 1%
- COc1ccc(Cn2cc([C@H](CC(=O)N3CCCC3)c3ccc(OCc4ccccc4)c(OC)c3)c3ccccc32)cc1 — lower, -12%
- Cc1nc(C(C)C)oc1CN1CCCC[C@H]1c1nccs1 — lower, -10%
- CCN1CCN(C(=O)c2ccc(CN3C(=O)COc4ccc(C(=O)COc5ccccc5C)cc43)o2)CC1 — lower, -7%
- c1nc(NCc2cc3n(n2)CCCN(C2CCCCC2)C3)c2nc[nH]c2n1 — lower, -10%

Point of comparison: `CCOC(=O)[C@H]1CCCN(C(=O)c2coc(CN(Cc3ccc4c(c3)OCO4)Cc3cc(C)ccc3C)n2)C1`, Z score 0.75. Against it:
- COc1ccc(Cl)cc1N1C(=O)[C@@H]2CCCN2[C@H]1c1ccccc1F — higher, 2.08
- Cc1ccc2c(Nc3cccc(Cl)c3)c(C(=O)N3CCCCCC3)cnc2n1 — higher, 1
- CN(C)CCN(CCS(=O)(=O)c1ccccc1)Cc1cccnc1 — lower, -0.92
- CCNC(=O)CN(CC)C(=O)C1CCC(C(=O)OC)CC1 (configuration not stated) — higher, 2.97
- CCN1C[C@@H](CN(C)S(=O)(=O)c2cc(-c3cc(C(F)(F)F)[nH]n3)oc2C)CC1=O — higher, 0.88
- Cc1ccc(Cn2c(=O)c(C(=O)NCc3ccccn3)nn(-c3ccc(C)c(C)c3)c2=O)cc1 — higher, 1.72
- O=C(c1ccccc1)c1ccc2c(c1)N=Cc1c([nH]c(=O)n(-c3ccccc3)c1=O)N2 — higher, 1.57
- CCCNC(=O)C1CCN(c2c(-n3c(C)ccc3C)c(C)nn2-c2ccccc2)CC1 — lower, -1.22
- Cc1nnsc1C(=O)NCCn1cc(-c2ccoc2)cn1 — lower, -2.65
- Cc1cc(C)c2[nH]c(C(=O)N3CCC[C@H]3CO)c(C)c2c1 — higher, 0.8
- Cc1ccc2nc3c(n2c1)[C@@H](c1cnc(N2CCCC2)nc1)CC(=O)NC3 — lower, -2.13
- CCCCc1c(O)nc(N2CCc3ccccc3C2)[nH]c1=O — lower, -1.01
- CCCCc1nc(CN2C(=O)C[C@](C)(CC(C)C)C2=O)no1 — lower, 0.2
- CCc1cc(CN(C)Cc2ccc(CO)o2)on1 — lower, 0.59
- Cc1cccc(NC(=O)CN(C)c2nnnn2-c2ccccc2)c1C — higher, 0.84
- Cc1ncnc2c1ncn2-c1cncc(C(N)=O)c1 — lower, -0.18
- O=C(CCc1nnc2ccc(N3CCCCC3)nn12)Nc1ccc2c(c1)OCCO2 — lower, 0.05
- O=C1NC(C2CC2)(C2CC2)C(=O)N1Cc1cc(-c2ccccc2)on1 — lower, 0.4
- CC(C)(C)OC(=O)NCC[C@H](NC(=O)C1CC(=O)C1)C(F)(F)F — higher, 0.85
- CCCN1CCC[C@H]1c1nc(Cc2cccnc2)no1 — lower, 0.07
- Cn1c(CO)nnc1[C@H]1C[C@H](NC(=O)Cc2cccs2)C1 — higher, 1.2
- COCCN1CCC[C@@]2(CCN(C/C(C)=C/c3ccco3)C2)C1 — higher, 2.68
- c1n[nH]cc1C1CCCN1CCOC1CCCCO1 (configuration not stated) — lower, 0.73
- CCN(CC)c1cc(CCC(=O)NCc2ccc(F)cc2F)ccn1 — lower, -1.07
- CC(C)C(=O)N1CCC([C@@H]2CN(C(=O)Cc3cccc(Cl)c3)C[C@H]2CO)CC1 — lower, -1.11
- c1ccc([C@@H]2COc3ccccc3N2)cc1 — lower, -0.29
- CC1(C)CN(CCS(N)(=O)=O)C1(C)C — lower, 0.41
- O=C(NCc1ccc2c(c1)OCO2)[C@@H]1CCN(c2ccc(Cl)c(Cl)c2)C1=O — higher, 1.17
- CCOc1ccc(NC(=O)C[C@H]2C(=O)N(Cc3ccccc3)CCN2Cc2ccccc2)cc1 — higher, 1.03
- Cc1ccc(NC(=O)Cn2c3cc(F)ccc3c(=O)n2C(C)(C)C)cc1F — lower, 0.53
- CCOc1ccc(OCc2nc([C@H]3CC34CCC4)n(C(C)C)n2)cc1 — lower, 0.62
- O=C(COc1ccc(F)cc1)N1CC[C@H](Oc2ncccc2C(=O)N2CCCCC2)C1 — higher, 1.13
- c1ccc2c(N3CCOCC3)nnc(N3CCCC3)c2c1 — higher, 1.05
- CC(C)[C@H](CNC(=O)Nc1ccc2sncc2c1)c1cccnc1 — higher, 1.33
- FC(F)(F)C1(C(F)(F)F)N=C(c2ccccc2)NC(c2ccccc2)=N1 — higher, 5.09
- CN1Cc2ccccc2N(CC(=O)NCc2ccccc2)C1=O — lower, -0.11
- COc1ccc(Cn2cc([C@H](CC(=O)N3CCCC3)c3ccc(OCc4ccccc4)c(OC)c3)c3ccccc32)cc1 — higher, 1.57
- Cc1nc(C(C)C)oc1CN1CCCC[C@H]1c1nccs1 — higher, 1.67
- CCN1CCN(C(=O)c2ccc(CN3C(=O)COc4ccc(C(=O)COc5ccccc5C)cc43)o2)CC1 — higher, 0.83
- c1nc(NCc2cc3n(n2)CCCN(C2CCCCC2)C3)c2nc[nH]c2n1 — higher, 2.15
